Laboratory results from publication PMC12730228, “Targeted NanoBiT Screening Identifies a Novel Interaction Between SNAPIN and Influenza A Virus M1 Protein” (Biology, 2025).
No constants are given. Whether binding was seen depends on the method and setting. Binding seen in cells or lysates may run through a third protein. Some results given as binding are weak or reduced against the parent protein; the word gives no strength. For part of these data: Tags and fused reporters may be left off the sequences shown.

Amino acid sequences for entries named in this document (tags omitted). Residues count along the entry.
UniProt P05777: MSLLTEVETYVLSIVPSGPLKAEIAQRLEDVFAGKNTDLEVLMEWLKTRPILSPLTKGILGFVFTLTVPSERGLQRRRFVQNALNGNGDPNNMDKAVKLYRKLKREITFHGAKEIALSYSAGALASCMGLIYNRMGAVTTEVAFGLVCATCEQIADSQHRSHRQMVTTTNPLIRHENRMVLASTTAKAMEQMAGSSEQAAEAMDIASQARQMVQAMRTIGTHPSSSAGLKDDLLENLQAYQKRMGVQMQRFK
UniProt P03454, residues 18-565: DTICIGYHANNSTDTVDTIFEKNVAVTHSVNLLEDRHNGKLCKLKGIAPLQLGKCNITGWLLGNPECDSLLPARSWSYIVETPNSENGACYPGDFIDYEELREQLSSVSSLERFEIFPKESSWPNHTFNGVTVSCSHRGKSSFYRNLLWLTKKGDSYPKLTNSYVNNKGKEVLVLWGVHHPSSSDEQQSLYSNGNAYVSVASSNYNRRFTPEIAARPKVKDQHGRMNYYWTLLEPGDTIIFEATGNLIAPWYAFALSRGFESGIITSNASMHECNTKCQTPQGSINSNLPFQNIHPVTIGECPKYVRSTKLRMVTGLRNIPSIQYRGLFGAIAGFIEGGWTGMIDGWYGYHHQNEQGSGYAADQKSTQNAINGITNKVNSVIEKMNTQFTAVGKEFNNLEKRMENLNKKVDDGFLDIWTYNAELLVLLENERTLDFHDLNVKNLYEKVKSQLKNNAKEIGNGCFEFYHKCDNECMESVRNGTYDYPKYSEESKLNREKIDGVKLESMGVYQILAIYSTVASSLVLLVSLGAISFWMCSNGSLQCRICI
UniProt P03470: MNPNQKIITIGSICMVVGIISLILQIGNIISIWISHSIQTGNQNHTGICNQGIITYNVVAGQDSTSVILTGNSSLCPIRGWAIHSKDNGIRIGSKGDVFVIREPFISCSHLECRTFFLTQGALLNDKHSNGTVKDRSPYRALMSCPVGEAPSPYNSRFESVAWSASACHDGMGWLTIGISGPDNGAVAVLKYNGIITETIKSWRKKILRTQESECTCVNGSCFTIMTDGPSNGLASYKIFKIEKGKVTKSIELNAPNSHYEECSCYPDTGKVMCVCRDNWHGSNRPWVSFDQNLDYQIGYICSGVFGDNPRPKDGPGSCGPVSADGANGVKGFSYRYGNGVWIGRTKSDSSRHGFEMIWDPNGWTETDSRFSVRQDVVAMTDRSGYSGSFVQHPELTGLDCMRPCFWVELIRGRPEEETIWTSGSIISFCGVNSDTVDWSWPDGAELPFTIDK
UniProt P15682: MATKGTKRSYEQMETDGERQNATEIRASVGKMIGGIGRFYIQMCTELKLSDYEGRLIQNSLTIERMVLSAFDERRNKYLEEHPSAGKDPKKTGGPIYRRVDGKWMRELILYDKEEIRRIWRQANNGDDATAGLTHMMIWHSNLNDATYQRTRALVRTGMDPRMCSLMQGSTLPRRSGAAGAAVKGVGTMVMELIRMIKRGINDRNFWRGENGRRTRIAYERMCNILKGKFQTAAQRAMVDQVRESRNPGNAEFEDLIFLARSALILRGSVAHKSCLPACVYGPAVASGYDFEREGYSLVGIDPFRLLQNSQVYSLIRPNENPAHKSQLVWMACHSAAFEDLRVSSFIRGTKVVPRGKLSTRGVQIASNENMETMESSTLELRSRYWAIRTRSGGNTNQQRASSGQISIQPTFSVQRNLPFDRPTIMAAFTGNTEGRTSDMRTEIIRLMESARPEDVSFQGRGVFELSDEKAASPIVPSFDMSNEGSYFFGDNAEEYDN
UniProt P03430: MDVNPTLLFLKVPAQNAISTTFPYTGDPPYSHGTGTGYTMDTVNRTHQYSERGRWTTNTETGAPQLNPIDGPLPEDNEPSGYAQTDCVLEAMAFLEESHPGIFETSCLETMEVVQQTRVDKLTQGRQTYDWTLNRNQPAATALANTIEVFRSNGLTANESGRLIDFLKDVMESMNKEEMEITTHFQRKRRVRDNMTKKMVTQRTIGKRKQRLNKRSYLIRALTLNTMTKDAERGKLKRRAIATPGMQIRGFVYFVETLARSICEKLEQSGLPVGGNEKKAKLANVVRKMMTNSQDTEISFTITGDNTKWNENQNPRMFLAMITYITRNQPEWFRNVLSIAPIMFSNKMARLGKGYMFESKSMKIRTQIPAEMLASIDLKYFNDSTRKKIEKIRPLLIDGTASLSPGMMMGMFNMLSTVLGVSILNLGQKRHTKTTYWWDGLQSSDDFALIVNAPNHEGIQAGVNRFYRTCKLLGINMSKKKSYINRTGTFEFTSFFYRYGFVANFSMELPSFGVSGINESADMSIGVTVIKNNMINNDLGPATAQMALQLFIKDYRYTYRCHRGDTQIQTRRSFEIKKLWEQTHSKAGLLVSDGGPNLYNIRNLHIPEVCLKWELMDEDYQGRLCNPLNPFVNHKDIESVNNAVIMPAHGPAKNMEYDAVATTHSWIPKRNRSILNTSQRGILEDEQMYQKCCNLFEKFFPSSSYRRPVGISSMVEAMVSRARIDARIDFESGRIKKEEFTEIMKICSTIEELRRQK
UniProt P03427: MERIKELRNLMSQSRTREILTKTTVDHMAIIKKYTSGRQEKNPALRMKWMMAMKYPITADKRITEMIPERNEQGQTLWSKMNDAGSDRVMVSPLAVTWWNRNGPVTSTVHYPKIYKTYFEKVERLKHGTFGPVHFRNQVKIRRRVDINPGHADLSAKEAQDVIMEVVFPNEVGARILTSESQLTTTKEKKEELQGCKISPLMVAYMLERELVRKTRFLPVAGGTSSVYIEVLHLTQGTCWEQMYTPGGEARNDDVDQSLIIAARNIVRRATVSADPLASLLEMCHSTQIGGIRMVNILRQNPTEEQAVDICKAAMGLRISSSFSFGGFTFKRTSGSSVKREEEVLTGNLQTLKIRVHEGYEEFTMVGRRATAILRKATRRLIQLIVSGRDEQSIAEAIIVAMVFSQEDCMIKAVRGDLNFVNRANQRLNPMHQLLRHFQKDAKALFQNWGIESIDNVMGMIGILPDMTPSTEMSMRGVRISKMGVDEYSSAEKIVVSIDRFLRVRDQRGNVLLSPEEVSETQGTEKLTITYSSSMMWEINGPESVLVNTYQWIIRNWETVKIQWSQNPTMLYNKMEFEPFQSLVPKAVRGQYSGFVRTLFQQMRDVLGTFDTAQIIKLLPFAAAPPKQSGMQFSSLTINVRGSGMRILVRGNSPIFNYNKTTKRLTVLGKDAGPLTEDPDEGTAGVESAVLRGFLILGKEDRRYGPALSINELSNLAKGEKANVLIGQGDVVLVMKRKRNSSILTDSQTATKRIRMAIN
UniProt P05780: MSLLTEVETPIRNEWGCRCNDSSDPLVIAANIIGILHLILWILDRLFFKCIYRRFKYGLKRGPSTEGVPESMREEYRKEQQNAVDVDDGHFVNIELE

B1: GST-SNAPIN (natural protein, human, UniProt O95295 1-136, looked up)
chain: MAGAGSAAVSGAGTPVAGPTGRDLFAEGLLEFLRPAVQQLDSHVHAVRESQVELREQIDNLATELCRINEDQKVALDLDPYVKKLLNARRRVVLVNNILQNAQERLRRLNHSVAKETARRRAMLDSGIYPPGSPGK
notes: also called GST-tagged SNAPIN

Columns and labels:
Myc-SNAPIN (human) = target: T1, Myc-SNAPIN (human) (UniProt O95295); assay: co-IP
T1 sequence: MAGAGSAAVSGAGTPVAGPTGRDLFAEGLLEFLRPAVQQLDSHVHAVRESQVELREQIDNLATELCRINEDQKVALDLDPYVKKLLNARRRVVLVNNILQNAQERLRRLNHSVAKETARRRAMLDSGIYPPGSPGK

SmN-SNAPIN (human) = target: T2, SmN-SNAPIN (human) (UniProt O95295); assay: split reporter
T2 sequence: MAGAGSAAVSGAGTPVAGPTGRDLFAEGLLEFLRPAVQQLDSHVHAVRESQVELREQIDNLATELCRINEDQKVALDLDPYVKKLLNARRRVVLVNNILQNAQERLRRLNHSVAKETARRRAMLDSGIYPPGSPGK

Flag-SNAPIN (human) = target: T3, Flag-SNAPIN (human) (UniProt O95295); assay: co-IP
T3 sequence: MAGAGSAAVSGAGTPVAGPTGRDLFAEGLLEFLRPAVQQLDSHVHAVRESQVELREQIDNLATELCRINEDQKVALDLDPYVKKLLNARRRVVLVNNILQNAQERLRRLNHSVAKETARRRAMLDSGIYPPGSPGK

[1] = target: Flag-M1 (influenza A virus A/WSN/33 (H1N1)) (UniProt P05777); assay: co-IP

| Molecule | binding (SmN-SNAPIN (human)) | other results |
| --- | --- | --- |
| Flag-M1 (from UniProt P05777 1-252) | – | binding (Myc-SNAPIN (human)): binds |
| LgN-HA (from UniProt P03454) | no binding | – |
| LgN-NA (from UniProt P03470 1-453) | no binding | – |
| LgN-NP (from UniProt P15682 1-498) | no binding | – |
| LgN-PB1 (from UniProt P03430 1-757) | no binding | – |
| LgN-PB2 (from UniProt P03427 1-759) | no binding | – |
| M1 protein of WSN virus in infected cells (from UniProt P05777 1-252) | – | binding (Flag-SNAPIN (human)): binds |
| M2 protein of WSN virus in infected cells (from UniProt P05780 1-97) | – | binding (Flag-SNAPIN (human)): binds |
| B1 | – | binding [1]: binds |
